Data from PubChem BioAssay AID1963576 (National Center for Advancing Translational Sciences (NCATS), 2024).
Out of some 46,000 compounds screened, about 60 (0.1%) were called active. Roughly 3% stayed inconclusive and do not appear here. Calls follow the shape of the dose curve; as a rule, active = well fitted inhibition curve with a large enough effect; inconclusive = small, poorly fitted or top-dose-only effect; inactive = no such curve, though single readings can be large or run the other way. This is one part of the list.

experiment: Primary qHTS assay for Inhibitors of ovarian cancer metastasis using an organotypic tumor microenvironment (TME) model.; also: nearly all actives have a fitted effect of over 65% in size;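 as to activity change, negative = inhibition: plate controls were DMSO wells for no effect and tomatine positive control wells for full effect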; conditions: SKOV3ip1-GFP adhesion/invasion on 3D omental model, fluorescence; series mostly up to 45.8 µM; activity change, negative = inhibition: at the top concentration
Method in brief: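 Adhesion/invasion was scored as fixed GFP-labeled SKOV3ip1 cell counts (488/509 nm), normalized to DMSO and tomatine controls. Cancer cells in serum-free medium, with four compound doses (0.36-46 umol/L), sat 2 hr at RT then 16 hr at 37 C on a 48 hr fibroblast/mesothelial/ECM culture.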

SMILES	outcome	activity change, negative = inhibition
Cc1oc(-c2ccc(C(=O)NCc3ccc(Cl)cc3)cc2)nc1CS(=O)(=O)c1ccccc1	inactive	–
Cc1nc2ccccc2c(=O)n1-c1ccc(NC(=O)c2cccc([N+](=O)[O-])c2)cc1	–	inactive: -2.94%
CSc1ncc(C(=O)Nc2c(C)cccc2C)c(-c2ccccc2)n1	inactive	–
COc1ccccc1CCNC(=O)c1ccc(-c2nc(CSc3ccc(C)cc3)c(C)o2)cc1	inactive	–
COc1ccc(Cn2ccc3nc(C)c(C(=O)Nc4cc(C)cc(C)c4)cc3c2=O)cc1	–	inactive: 2.06%
Cc1ccc(C)c(NC(=O)c2cc(S(=O)(=O)N3CCCc4ccccc43)ccc2F)c1	–	inactive: 7.93%
CCOC(=O)c1ccc(NS(=O)(=O)c2ccc(-c3cc(C)no3)cc2)cc1	–	inactive: 13.4%
Cc1cc(C)c(OCC(=O)N(Cc2ccco2)Cc2ccco2)c(C)c1	inactive	–
Cc1cc2c(C(C)C)c(O)c(O)c(C=O)c2c(O)c1-c1c(C)cc2c(C(C)C)c(O)c(O)c(C=O)c2c1O	–	inactive: -13.4%
Cc1ccc(Nc2nnc(-c3ccc(C)c(S(=O)(=O)N4CCN(C)CC4)c3)c3ccccc23)cc1	inactive	–
CCCC(O)c1nc2ccccc2n1Cc1ccccc1OC (stereo unspecified)	–	inactive: 2.89%
COc1cc(NC(=O)CN2c3ccccc3S(=O)(=O)c3ccccc32)cc(OC)c1	–	inactive: 13.2%
CCC1CN(C(=O)N2CCC(C(=O)NCCc3ccccc3Cl)CC2)c2cc(C)ccc2O1 (stereo unspecified)	–	inactive: -10.1%
Cc1ccc(C(=O)CSc2nc(-c3ccccc3)nc3c2CCCC3)c(C)c1	–	inactive: -11.7%
Cc1cccc(C(C)C)c1NC(=O)C1CCCN1S(=O)(=O)c1cccc2nsnc12 (stereo unspecified)	–	inactive: -0.197%
CCOCCCn1c(SCC(=O)OCC)nc2c(sc3ccccc32)c1=O	–	inactive: -17.8%
COCCNC(=O)CSc1nc(-c2cc(OC)c(OC)c(OC)c2)[nH]c1-c1ccc(Cl)cc1	–	inactive: -0.233%
O=S(=O)(c1ccccc1)c1nnn2c1nc(NC1CCCCC1)c1sccc12	–	inactive: -5.73%
CNC(=O)C1CCC(Cn2c(=O)c3sccc3n(CC(=O)Nc3ccc(C)c(C)c3)c2=O)CC1 (stereo unspecified)	–	inactive: -5.37%
COc1ccc(CCNC(=O)C2CCC(CNS(=O)(=O)c3ccc(C)cc3)CC2)cc1OC (stereo unspecified)	–	inactive: 8.47%
CCCCn1cc(S(=O)(=O)c2ccc(OC)cc2)c(=O)c2cc(CC)ccc21	–	inactive: 0.244%
O=C(O)CCCCn1c(SCC(=O)Nc2ccccc2C(F)(F)F)nc2ccsc2c1=O	–	inactive: 1.98%
Cc1ccc(CN(C(=O)c2ccccc2)c2ccccn2)o1	–	inactive: 0.862%

SMILES	outcome	activity change, negative = inhibition
Cn1c(=O)c2c(SCC(=O)Nc3ccccc3C(F)(F)F)nc(C3CCCC3)nc2n(C)c1=O	–	inactive: -3.52%
COc1ccc(-c2cc(C)no2)cc1S(=O)(=O)N1CCc2ccccc21	–	inactive: -6.98%
CCc1ccc(NC(=O)CN(c2ccc(C)cc2)S(=O)(=O)c2cccs2)cc1	–	inactive: 4.35%
CC(=O)c1cccc(NC(=O)c2nc(-c3ccccc3)n(-c3cccc(Cl)c3)n2)c1	inactive	–
CCc1ccc(NC(=O)C(=O)NCC(c2cccnc2)N2CCN(c3ccc(F)cc3)CC2)cc1 (stereo unspecified)	–	inactive: 8.7%
CC(=O)N1CCc2nc3sc(C(=O)c4ccc(F)cc4)c(N)c3c(C(F)(F)F)c2C1	–	inactive: -46.1%
Cc1ccc(NC(=O)c2nc(S(C)(=O)=O)ncc2N(Cc2ccco2)Cc2cccs2)c(C)c1	–	inactive: -20%
Cc1ccc(OCC(=O)Nc2nnc(S(=O)(=O)N3c4ccccc4CC3C)s2)cc1 (stereo unspecified)	–	inactive: 9.45%
Cc1ccc(C(=O)Nc2ccc(S(=O)(=O)N3CCC(c4nc5ccccc5s4)CC3)cc2)cc1	–	inactive: -12.6%
Cc1ccc(NC(=O)CSc2nc(=O)n(CCN3CCOCC3)c3c2CCC3)c(C)c1	–	inactive: -3.53%
C[C@@H]1COC(Nc2ccc3ncnc(Nc4ccc(OCc5nccs5)c(Cl)c4)c3c2)=N1	–	inactive: -22.2%
Cc1ccc(OCCCCn2nnc3sc4c(c3c2=O)CCCC4)cc1	–	inactive: 7.17%
CCOc1ccccc1Nc1sc(C(=O)c2ccccc2)c(N)c1C(=O)Nc1ccccc1	–	inactive: -6.89%
CC(=O)c1cc(-c2ccccc2)n(CCC(=O)NCc2ccc(C)cc2)c1C	–	inactive: 31.3%
CCc1ccc(NC(=O)Cn2c(=O)n(CCCCC(=O)NCc3ccc4c(c3)OCO4)c(=O)c3ccccc32)cc1	–	inactive: -20.5%
CCOc1ccccc1NC(=O)c1ccc2c(Cl)c3c(nc2c1)CCC3	inactive	–
COc1ccc(-c2noc(N(c3nc(-c4ccc(OC)c(OC)c4)no3)c3ccccc3OC)n2)cc1OC	–	inactive: 6.46%
CCOc1ccccc1CNc1ccc2cc(S(=O)(=O)N3CCC(C)CC3)ccc2n1	inactive	–
COc1ccc(-c2nn3c(=O)cc(CN4CCN(C(=O)c5ccc(OC)c(OC)c5)CC4)nc3s2)cc1	inactive	–
O=S(=O)(NCc1nc2cccnc2n1Cc1ccccc1)c1ccc2c(c1)CCCC2	–	inactive: -1.14%
N#C/C(=C/c1ccc(Cl)cc1)c1nc(-c2ccc(Br)cc2)cs1	–	inactive: -23.6%
CCCN(CCC)C(=O)Cn1c(=O)n(-c2ccccc2)c(=O)c2c3c(sc21)CCCC3	inactive	–
CCCCc1nn2c(=O)cc(COC(=O)c3cccc(NC(=O)CCc4ccccc4)c3)nc2s1	–	inactive: -12.1%
